From the supplement of paper PMC5919970 come the findings set out here.

“And” between values parts separate entries of the source, which are not always exact repeats. Equal entries are not always repeated. Structures can show the parent of a compound that is named as a salt. Whole data set: some 2,000 compounds, median “fractional viability relative to vehicle” near 0.92, cut for the lowest 2% near 0.11. This is one part of the list.

The assay concerns TYKNU. Briefly: fractional viability relative to vehicle; TYKNU is a high-grade serous ovarian cancer line; higher = less growth inhibition. The settings on record: 72 h, genotype: OPA1 knockout (sgOPA1 #2). Put shortly: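 TYKNU control cells or lentiCRISPRv2 knockout derivatives were seeded at 500 cells per well into drug-stamped 384-well plates holding a ~2100-compound library at 2 or 10 μM, in duplicate. Cells were grown at 37 °C in 5% CO2 in RPMI 1640 with 10% FBS, and drug treatment lasted 72 h. Viability was read by Cell Titer Glo luminescence. Duplicate treatment wells were averaged and normalised to duplicate control wells from the same plate position.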

Take `COc1cc(Br)c(Nc2nc(-c3c(C)nc4ncccn34)cs2)c(Br)c1`: the fractional viability by setting is: (2uM) 0.404 and 0.408; (10uM) 0.319 and 0.35.
As to `COc1cc2c(Oc3ccc4[nH]c(C)cc4c3F)ncnc2cc1OCCCN1CCCC1` [Cediranib (AZD2171)], the fractional viability reads like this: (2uM) 1.1; (10uM) 0.181.
`CC(=O)O[C@]1(C(C)=O)CC[C@H]2[C@@H]3C[C@H](C)C4=CC(=O)CC[C@]4(C)[C@H]3CC[C@@]21C` [Medroxyprogesterone acetate]: the fractional viability by setting is: (2uM) 1.13; (10uM) 0.808.
On the same counts, the results for `O=C(O)c1cc(-c2ccccc2)nc2ccccc12` [Cinchophen] are 0.976 and 0.926.
On the same counts, the results for `Nc1nc2n[nH]nc2c(=O)[nH]1` [Azaguanine-8] are 1.51 and 0.999.
For `CN(C)c1nc(N(C)C)nc(N(C)C)n1` [Altretamine], in that order: 1.05 and 1.06.
Turning to `CCCNCC(O)COc1ccccc1C(=O)CCc1ccccc1` (stereo unspecified) [Propafenone HCl], the fractional viability worked out at 1.01 (2uM) and 0.869 (10uM).
On the same counts, the results for `NC(=O)C(c1ccccc1)(c1ccccc1)[C@@H]1CCN(CCc2ccc3c(c2)CCO3)C1` [Darifenacin HBr] are 0.802 and 0.704.
On the same counts, the results for `O=C1c2ccc(Nc3ccc(F)cc3F)cc2CCc2ccc(OC[C@H](O)CO)cc21` [Skepinone-L] are 1.19 and 0.679.
On the same counts, the results for `COc1ccccc1OCC(O)CN1CCN(CC(=O)Nc2c(C)cccc2C)CC1` (stereo unspecified) [Ranolazine 2HCl] are 1.13 and 1.03.
For `COc1ccccc1OCC(O)CN1CCN(CC(=O)Nc2c(C)cccc2C)CC1` (stereo unspecified) [Ranolazine], the fractional viability amounted to 1.09 (2uM) and 0.926 (10uM).
For `CN(C)C(=S)NN=C(c1ccccn1)c1ccccn1`, in that order: 0.572 and 0.755.
For `COc1cc([C@@H]2c3cc4c(cc3[C@@H](O[C@@H]3O[C@@H]5CO[C@@H](C)O[C@H]5[C@H](O)[C@H]3O)[C@H]3COC(=O)[C@H]23)OCO4)cc(OC)c1O` [Etoposide], in that order: 0.88 and 0.607.
Turning to `C[C@H]1C[C@@H]2[C@H]([C@@H](O)C[C@@]3(C)[C@H]2CC[C@]3(O)C(=O)CO)[C@@]2(C)C=CC(=O)C=C12` [Methylprednisolone], the fractional viability runs as follows: (2uM) 1.1; (10uM) 0.956.
In the case of `CC(=O)Nc1nc(C)c(-c2ccc(Cl)c(S(=O)(=O)NCCO)c2)s1`, the fractional viability runs as follows: (2uM) 0.961; (10uM) 0.668.
Turning to `OC[C@H]1O[C@@H](Oc2cc(O)cc(/C=C/c3ccc(O)cc3)c2)[C@H](O)[C@@H](O)[C@@H]1O` [Polydatin], the fractional viability was 1.09 (2uM) and 0.918 (10uM).
For `COc1ccc(C2CNC(=O)C2)cc1OC1CCCC1` (stereo unspecified) [Rolipram], in that order: 1.28 and 1.09.
Consider `O=c1c(O)c(-c2ccc(O)cc2O)oc2cc(O)cc(O)c12` [Morin Hydrate], for which the fractional viability is 1.17 (2uM) and 1.04 (10uM).
For `CCOC(=O)[C@H](CCc1ccccc1)N[C@H]1CS[C@H](c2cccs2)CN(CC(=O)O)C1=O` [Temocapril HCl], in that order: 1.14 and 0.841.
For `COc1ccc(F)c(F)c1C(=O)c1cnc(NC2CCN(S(C)(=O)=O)CC2)nc1N`, in that order: 0.518 and 0.619.
Regarding `CCCCC(F)(F)[C@@]1(O)CC[C@H]2[C@@H](CC(=O)[C@@H]2CCCCCCC(=O)O)O1` [Lubiprostone], the fractional viability came to 0.935 (2uM) and 1.03 (10uM).
On the same counts, the results for `O=S(=O)(O)c1cc(O)ccc1O` [Ethamsylate] are 0.911 and 0.925.
On the same counts, the results for `O=C1C[C@@H](c2ccc(O)cc2)Oc2cc(O)cc(O)c21` [Naringenin] are 1.01 and 1.06.
On the same counts, the results for `CCC(=O)O[C@]1(C(=O)CCl)[C@@H](C)C[C@H]2[C@@H]3CCC4=CC(=O)C=C[C@]4(C)[C@@]3(F)[C@@H](O)C[C@@]21C` [Clobetasol propionate] are 1.03 and 0.908.
For the compound `C[C@H](CCC(=O)O)[C@H]1CC[C@H]2[C@@H]3[C@H](O)C[C@@H]4C[C@H](O)CC[C@]4(C)[C@H]3CC[C@]12C` [Chenodeoxycholic Acid], the fractional viability reads like this: (2uM) 1.05; (10uM) 1.07.
Consider `COc1ccc([C@@H]2CC(=O)c3c(O)cc(O[C@@H]4O[C@H](CO)[C@@H](O)[C@H](O)[C@H]4O[C@@H]4O[C@@H](C)[C@H](O)[C@@H](O)[C@H]4O)cc3O2)cc1O` [Neohesperidin], for which the fractional viability is, setting by setting: (2uM) 1.11; (10uM) 0.888.
On the same counts, the results for `CC(=O)OCC(CCn1cnc2cnc(N)nc21)COC(C)=O` [Famciclovir] are 0.98 and 0.781.
For `CC(C)CC(CC(=O)NO)C(=O)N[C@@H](Cc1ccc2ccccc2c1)C(=O)N[C@@H](C)C(=O)NCCN` (stereo partly specified), in that order: 0.849 and 0.679.
On the same counts, the results for `C=CC(=O)Nc1cccc(Oc2nc(Nc3ccc(N4CCN(C)CC4)cc3OC)ncc2Cl)c1` are 0.964 and 0.766.
For `O=C(/C=C/c1ccc(O)c(O)c1)OCCc1ccccc1` [Caffeic Acid Phenethyl Ester], the fractional viability reads like this: (2uM) 0.978; (10uM) 0.808.
On the same counts, the results for `Nc1cc(C(Cl)=C(Cl)Cl)c(S(N)(=O)=O)cc1S(N)(=O)=O` [Clorsulon] are 1.06 and 0.918.
On the same counts, the results for `Cc1ccccc1CN1C2=NCCN2C(=O)C2=C1CCN(Cc1ccccc1)C2` [TIC10 Analogue] are 0.878 and 0.768.
On the same counts, the results for `CC[C@H](C)C(=O)O[C@H]1CCC=C2C=C[C@H](C)[C@H](CC[C@@H]3C[C@@H](O)CC(=O)O3)[C@H]21` [Mevastatin] are 0.905 and 0.617.
In turn, `CC(=O)[C@]1(O)Cc2c(O)c3c(c(O)c2[C@@H](O[C@H]2C[C@H](N)[C@H](O)[C@H](C)O2)C1)C(=O)c1ccccc1C3=O` [Idarubicin HCl] displayed a fractional viability (2uM) of 0.56 and a fractional viability (10uM) of 0.0586.
Take `O=c1oc2ccccc2c(O)c1Cc1c(O)c2ccccc2oc1=O` [Dicoumarol]: the fractional viability runs as follows: (2uM) 0.961; (10uM) 0.877.
For `CS(=O)(=O)N1CCc2c(-c3cnc(N)nc3)nc(N3CCOCC3)nc21`, in that order: 0.65 and 0.319.
For `Cc1nc(=O)c2cc(CN(C)c3ccc(C(=O)N[C@@H](CCC(=O)O)C(=O)O)s3)ccc2[nH]1` [Raltitrexed], in that order: 0.762 and 0.722.
On the same counts, the results for `O=C1c2ccccc2C(=O)c2c1ccc(O)c2O` [Alizarin] are 1.19 and 0.838.
With `CCCOc1ccn2c(C(C)=O)cc(-c3ccccc3S(C)(=O)=O)c2c1`, the fractional viability stood at 0.832 (2uM) and 0.937 (10uM).
As to `CC(/C=C1\SC(=S)N(CC(=O)O)C1=O)=C\c1ccccc1` [Epalrestat], the fractional viability by setting is: (2uM) 0.964; (10uM) 1.07.
As to `COc1ccc([C@]2(C#N)CC[C@@H](C(=O)O)CC2)cc1OC1CCCC1` [Cilomilast], the fractional viability (2uM) worked out at 1.16 and the fractional viability (10uM) worked out at 0.971.
With `O=C(NCCO)c1cccc(-c2cc(Nc3ccc(OC(F)(F)F)cc3)ncn2)c1`, the fractional viability (2uM) worked out at 0.946 and the fractional viability (10uM) worked out at 0.84.
For `COCC[n+]1c2c(n(Cc3cnccn3)c1C)C(=O)c1ccccc1C2=O` [YM155 (Sepantronium Bromide)], in that order: 0.06 and 0.0555.
For `O=S(=O)(O)NC1CCCCC1` [Cyclamic  acid], in that order: 1.03 and 0.99.
On the same counts, the results for `C#CC[C@H](c1nc2cc(Cl)ccc2c(=O)n1Nc1ccccc1)N(CCCN)C(=O)c1cccc(Cl)c1F` are 0.562 and 0.0443.
For `C[C@@H]1CCN(C(=O)CC#N)C[C@@H]1N(C)c1ncnc2[nH]ccc12`, the fractional viability was 0.867 and 0.972 (2uM); 1.07 and 1.17 (10uM).
For `Cc1cc2c(F)c(Oc3ncnn4cc(OC[C@@H](C)OC(=O)[C@H](C)N)c(C)c34)ccc2[nH]1`, the fractional viability reads like this: (2uM) 0.88; (10uM) 0.627.
As for `CCOC(=O)Nc1cc(-c2ccc(C)c(NS(C)(=O)=O)c2)nn2c(C)nnc12` [Bromosporine], the fractional viability is, setting by setting: (2uM) 0.92; (10uM) 0.534.
For `Cc1ccc(Cl)c(Nc2ccccc2C(=O)O)c1Cl` [Meclofenamate Sodium], in that order: 0.888 and 0.932.
For `O=C(NCCO[N+](=O)[O-])c1cccnc1` [Nicorandil], in that order: 0.904 and 1.
On the same counts, the results for `CN(C)CCOc1ccc(/C(=C(/CCCl)c2ccccc2)c2ccccc2)cc1` [Toremifene Citrate] are 1.22 and 0.875.
For the compound `CC(C)(Cc1ccc2ccccc2c1)NC[C@@H](O)COc1cccc(Cl)c1C#N`, the fractional viability stood at 1.06 (2uM) and 0.0653 (10uM).
On the same counts, the results for `O=C(c1cn(Cc2cncn2Cc2ccc(Br)cc2)cc1-c1cccc2ccccc12)N1CCOCC1` are 0.52 and 0.426.
On the same counts, the results for `CCN1CCN(C(=O)N[C@@H](C(=O)N[C@@H]2C(=O)N3C(C(=O)O)=C(CSc4nnnn4C)CS[C@H]23)c2ccc(O)cc2)C(=O)C1=O` [Cefoperazone] are 1.2 and 0.922.
On the same counts, the results for `COc1cc(O)c(CC=C(C)C)c(O)c1C(=O)/C=C/c1ccc(O)cc1` [Xanthohumol] are 0.841 and 0.772.
As to `Cc1cc(/N=N/c2ccc(S(=O)(=O)Nc3ccccn3)cc2)c(N)cc1O`, the fractional viability is, setting by setting: (2uM) 0.89; (10uM) 0.64.
For `Oc1ccc(OCc2ccccc2)cc1` [Monobenzone], in that order: 1.01 and 0.909.
`C[C@H]1C[C@H]2[C@@H]3CCC4=CC(=O)C=C[C@]4(C)[C@@]3(F)[C@@H](O)C[C@]2(C)[C@@]1(O)C(=O)CO` [Betamethasone]: the fractional viability reads like this: (2uM) 1.12; (10uM) 1.2.
Take `O=C(O)/C=C/c1ccc(Cn2ccnc2)cc1` [Ozagrel HCl]: the fractional viability runs as follows: (2uM) 1.14; (10uM) 1.01.
For `O=C(O)/C=C/c1ccc(Cn2ccnc2)cc1` [Ozagrel], in that order: 0.951 and 0.914.
For the compound `COc1cc2nccc(Oc3ccc(NC(=O)C4(C(=O)Nc5ccc(F)cc5)CC4)cc3)c2cc1OC`, the fractional viability is, setting by setting: (2uM) 1.43; (10uM) 1.01.
On the same counts, the results for `CNC(=O)c1cc(COc2nnc(Nc3ccc(Cl)cc3)c3ccoc23)ccn1` [Telatinib] are 0.834 and 0.653.
On the same counts, the results for `CCCc1nc(C)c2c(=O)nc(-c3cc(S(=O)(=O)N4CCN(CC)CC4)ccc3OCC)[nH]n12` [Vardenafil HCl Trihydrate] are 1.02 and 0.915.
For `Cc1cc(C)cc(C(=O)NOCCCCCC(=O)NO)c1`, in that order: 0.355 and 0.188.
With `O=c1c(-c2ccc(O)cc2)coc2c([C@@H]3O[C@H](CO)[C@@H](O)[C@H](O)[C@H]3O)c(O)ccc12` [Puerarin], the fractional viability (2uM) was determined as 1.08 and the fractional viability (10uM) was 1.06.
The compound `CCOc1nc2cccc(C(=O)O)c2n1Cc1ccc(-c2ccccc2-c2noc(=O)[nH]2)cc1` [Azilsartan] came in with a fractional viability (2uM) of 0.997 and a fractional viability (10uM) of 1.12.
Turning to `COCCOC(=O)C1=C(C)NC(C)=C(C(=O)OC/C=C/c2ccccc2)C1c1cccc([N+](=O)[O-])c1` (stereo unspecified) [Cilnidipine], the fractional viability worked out at 1.09 (2uM) and 0.851 (10uM).
On the same counts, the results for `Cc1cc([C@@H](C)Nc2ccccc2C(=O)O)c2nc(N3CCOCC3)cc(=O)n2c1` are 1.12 and 1.16.
